# Some of the results follow. Each Rep nickase domain was tested in vitro on the same pool of single strands (3 µM enzyme, 1 h, 37 °C); shown is the middle of each 90-letter strand. Numbers give uncut DNA relative to the enzyme-free pool, as log2; the lower, the more was cut; hits are not called. Reads are scaled to the total, so uncut sequences can rise above 0 when many others are cut.
# Columns and labels:
# Test in all cases: uncleaved DNA left, log2 of reads against the no-enzyme library (log2 ratio); higher = less cleavage (more negative = more Rep cleavage of the k-mer); sequences stand for … in CTCGTCCG…ACCGGAGA
# [1] = system: T1, Rep nickase domain of Muscovy duck circovirus
# T1 sequence (protein, residues 1-111, tag omitted): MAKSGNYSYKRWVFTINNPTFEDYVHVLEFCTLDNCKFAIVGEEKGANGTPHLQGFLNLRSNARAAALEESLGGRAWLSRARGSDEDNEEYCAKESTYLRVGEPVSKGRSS
# Procedure: (§1)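 A pool of 90-nt single-stranded DNAs with seven random bases just before the constant AC of the nick site (name = the seven bases) was cut by 3 µM recombinant His6-SUMO-tagged Rep nickase domain (300 nM DNA, 50 mM HEPES pH 8.0, 50 mM NaCl, 1 mM MnCl2, 1 h, 37 °C, three replicates). Uncut DNA was amplified and sequenced.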
# [2] = system: T2, Rep nickase domain of banana bunchy top virus
# T2 sequence (protein, residues 1-94, tag omitted): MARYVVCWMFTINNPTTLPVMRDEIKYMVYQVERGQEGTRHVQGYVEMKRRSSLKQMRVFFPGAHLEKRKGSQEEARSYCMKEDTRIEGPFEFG
# Procedure: as §1
# [3] = system: T3, Rep nickase domain of cabbage leaf curl virus
# T3 sequence (protein, residues 1-116, tag omitted): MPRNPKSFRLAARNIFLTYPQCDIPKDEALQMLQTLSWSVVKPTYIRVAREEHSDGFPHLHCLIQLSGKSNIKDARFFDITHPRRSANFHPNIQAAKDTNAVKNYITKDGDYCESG
# Procedure: as §1
# [4] = system: T4, Rep nickase domain of chickpea chlorotic dwarf virus
# T4 sequence (protein, residues 1-124, tag omitted): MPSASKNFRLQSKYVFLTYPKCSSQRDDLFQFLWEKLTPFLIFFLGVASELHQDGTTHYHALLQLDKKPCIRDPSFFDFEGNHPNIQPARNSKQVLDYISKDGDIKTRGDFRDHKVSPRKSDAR
# Procedure: as §1
# [5] = system: T5, Rep nickase domain of faba bean necrotic yellows virus
# T5 sequence (protein, residues 1-98, tag omitted): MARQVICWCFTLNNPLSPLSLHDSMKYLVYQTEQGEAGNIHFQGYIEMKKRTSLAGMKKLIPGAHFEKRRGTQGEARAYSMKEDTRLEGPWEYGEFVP
# Procedure: as §1
# [6] = system: T6, Rep nickase domain of maize striate mosaic virus
# T6 sequence (protein, residues 1-117, tag omitted): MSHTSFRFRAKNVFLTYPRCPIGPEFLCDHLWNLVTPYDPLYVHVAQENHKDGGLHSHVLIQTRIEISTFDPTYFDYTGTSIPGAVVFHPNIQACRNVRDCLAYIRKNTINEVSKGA
# Procedure: as §1
# [7] = system: T7, Rep nickase domain of porcine circovirus 2
# T7 sequence (protein, residues 2-116, tag omitted): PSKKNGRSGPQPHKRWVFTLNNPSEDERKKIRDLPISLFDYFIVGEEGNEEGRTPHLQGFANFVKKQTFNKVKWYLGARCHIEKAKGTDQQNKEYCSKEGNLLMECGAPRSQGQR
# Procedure: as §1
# [8] = system: T8, Rep nickase domain of tomato golden mosaic virus
# T8 sequence (protein, residues 1-124, tag omitted): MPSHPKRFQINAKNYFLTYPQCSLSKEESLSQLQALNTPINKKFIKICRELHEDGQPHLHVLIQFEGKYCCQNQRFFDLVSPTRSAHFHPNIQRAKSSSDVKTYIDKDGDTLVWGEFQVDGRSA
# Procedure: as §1
# [9] = system: T9, Rep nickase domain of tomato yellow leaf curl virus
# T9 sequence (protein, residues 1-136, tag omitted): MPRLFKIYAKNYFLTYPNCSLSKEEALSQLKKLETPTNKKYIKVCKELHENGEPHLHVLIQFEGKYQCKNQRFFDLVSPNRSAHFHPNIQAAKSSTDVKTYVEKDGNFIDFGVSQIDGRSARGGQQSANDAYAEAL
# Procedure: as §1
# [10] = system: T10, Rep nickase domain of wheat dwarf virus
# T10 sequence (protein, residues 1-137, tag omitted): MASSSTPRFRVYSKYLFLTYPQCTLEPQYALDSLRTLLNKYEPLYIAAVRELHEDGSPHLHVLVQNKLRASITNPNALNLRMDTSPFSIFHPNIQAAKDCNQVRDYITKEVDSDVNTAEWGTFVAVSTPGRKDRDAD
# Procedure: as §1
Sequence,uncleaved DNA left (log2) [1],uncleaved DNA left (log2) [2],uncleaved DNA left (log2) [3],uncleaved DNA left (log2) [4],uncleaved DNA left (log2) [5],uncleaved DNA left (log2) [6],uncleaved DNA left (log2) [7],uncleaved DNA left (log2) [8],uncleaved DNA left (log2) [9],uncleaved DNA left (log2) [10]
AATCATG,-0.00717,-0.0117,-0.527,-0.455,-0.103,-0.958,0.0821,0.035,-0.152,-0.115
ACAGCGG,-0.0297,-0.099,-0.758,-0.498,0.0313,-0.917,0.169,-0.00734,0.0185,-0.134
ATAATAG,0.0499,-0.0171,-0.8,-0.446,0.0669,-1.23,0.199,0.0836,0.0164,0.0155
GTTTCAT,0.00694,0.131,0.304,0.992,-0.0363,1.84,0.129,0.0992,0.109,0.132
TGTTTGA,0.113,0.074,0.127,0.268,0.0574,-0.222,-0.0131,0.0495,0.0938,0.131
TCAATGA,0.0365,-0.0578,0.0669,-0.0528,0.0515,-0.624,0.045,0.0812,-0.00172,-0.0412
GTTTCGT,0.0424,-0.00105,0.153,0.536,-0.0586,0.834,-0.0618,-0.0421,0.016,0.117
AGCACGA,-0.0386,-0.000344,-0.0355,0.152,-0.00798,0.194,-0.0166,0.0411,-0.0802,0.0377
TTTAGAT,0.0943,0.0748,0.167,0.503,0.0467,1,0.079,0.119,0.0401,0.102
TAGGAAA,0.0782,0.0855,0.541,1.01,0.0238,1.38,0.0441,0.21,0.0969,0.256
CCTTCCG,-0.0423,-0.0156,-0.841,0.0362,-0.0186,-0.948,0.173,-0.109,0.0112,-0.136
GCCCGAT,-0.0935,-0.0974,0.118,0.601,-0.0205,0.815,-0.00119,-0.0649,-0.058,-0.148
CTGACCC,-0.0486,-0.0311,0.023,0.4,-0.0501,0.188,-0.021,-0.0249,-0.073,0.044
ACGGAGC,-0.0023,-0.0953,-0.448,-0.34,0.0164,-0.762,0.0192,-0.0176,0.0223,-0.146
ATTAGCT,-0.0137,-0.0965,-0.531,-1.56,0.0507,-1.12,-0.76,-0.0421,0.0416,-0.15
TGGCCAT,0.0525,0.00826,0.701,1.8,-0.0132,2.1,0.0711,-0.113,-0.0444,-0.00573
AGCATAG,0.00749,0.0736,-0.374,-0.329,0.0259,-0.95,0.175,0.0597,0.0751,-0.0122
CATTCGT,-0.246,-0.634,-1.01,-0.765,-0.0367,-1.18,-1.11,-0.258,-0.119,-0.242
TACACGA,-0.0347,-0.0292,-0.385,-0.869,0.055,-1.13,0.11,-0.018,-0.0278,-0.0417
CAGGAAC,-0.0334,-0.045,0.0414,0.703,-0.101,0.431,0.245,-0.031,-0.0493,0.156

Sequence,uncleaved DNA left (log2) [1],uncleaved DNA left (log2) [2],uncleaved DNA left (log2) [3],uncleaved DNA left (log2) [4],uncleaved DNA left (log2) [5],uncleaved DNA left (log2) [6],uncleaved DNA left (log2) [7],uncleaved DNA left (log2) [8],uncleaved DNA left (log2) [9],uncleaved DNA left (log2) [10]
ATTTATA,-0.169,-0.0703,-0.0465,-1.77,0.0423,-0.461,-0.203,0.0122,0.122,0.0917
CCCGCTA,-0.122,-0.122,-0.232,-0.931,-0.0781,-0.701,0.0849,0.0335,-0.124,-0.125
CTGTACT,-3.15,-1.99,-0.28,-2.58,-2.47,-0.492,-3.51,-0.163,0.0861,-0.0806
AGGACTG,-0.0109,-0.0161,0.0225,0.626,-0.0465,1.73,-0.0701,5.04e-05,-0.109,0.0989
AACCAAC,-0.0171,0.0936,-0.216,-1.4,-0.0647,-0.702,-0.185,-0.156,-0.106,0.00844
TAGTTTG,-0.00407,-0.109,-0.433,-0.647,0.0235,-1.09,-2.82,0.0163,0.0278,-0.0973
GTCTTGG,0.107,0.127,0.363,0.845,0.0987,1.6,0.287,0.19,0.174,0.157
GGGGAGC,0.283,0.222,1.04,2,0.109,2.39,0.428,0.197,0.17,0.191
TTCAGCA,-0.0427,-0.0544,-0.191,-0.924,0.117,-0.936,-0.279,-0.0655,0.0537,-0.112
CGACATC,0.103,0.177,0.294,0.923,0.0425,1.03,0.247,0.085,0.104,0.308
TTCTGTA,-0.17,-0.144,-0.016,-0.767,-0.056,-0.28,-0.463,-0.188,-0.0968,-0.171
ATCGAGT,0.0594,-0.0487,-0.133,-0.0801,0.0151,-0.409,-0.105,0.109,-0.121,0.0139
AGGCATG,0.11,0.0924,0.109,0.64,0.0667,0.693,0.163,0.0206,0.0054,0.133
CCACTTA,0.0443,-0.00318,0.0282,-1.47,0.162,-0.466,-0.00109,0.11,0.0589,0.102
AATCCCG,-0.0654,0.0086,-0.766,-0.0862,0.108,-1.12,-0.542,-0.0442,0.0627,0.0626
TATGTCG,-0.0126,-0.0942,-0.891,0.186,0.0772,-1.03,0.00918,-0.152,-0.0391,-0.136
CCTTCCC,-0.151,-0.115,-0.0314,-0.475,-0.154,-0.539,-0.189,-0.287,-0.176,-0.154
GTACAAG,-0.0538,0.00263,-0.348,-0.599,0.0376,-0.82,0.0543,0.0642,-0.0196,-0.0719
GCTTGTC,-0.0968,-0.101,0.0136,0.497,-0.165,-0.03,-0.0917,-0.112,-0.103,-0.0238
GAGACCA,0.0304,-0.0232,0.435,1.14,-0.0288,1.47,0.12,0.121,0.0286,0.142

Sequence,uncleaved DNA left (log2) [1],uncleaved DNA left (log2) [2],uncleaved DNA left (log2) [3],uncleaved DNA left (log2) [4],uncleaved DNA left (log2) [5],uncleaved DNA left (log2) [6],uncleaved DNA left (log2) [7],uncleaved DNA left (log2) [8],uncleaved DNA left (log2) [9],uncleaved DNA left (log2) [10]
CGCGCCT,-0.112,-0.0174,-0.0935,-0.513,0.0316,-0.138,-0.0777,-0.178,-0.0178,-0.00279
TTAAGCA,0.0869,0.059,-0.527,-2.04,0.00386,-1.1,-0.157,-0.0322,0.0463,-0.0208
TTAATAT,0.0238,-0.0501,0.246,-0.918,-0.0366,-0.212,-0.0843,-0.0421,0.143,-0.0512
CATGCTA,0.04,-0.0343,-0.322,-1.26,0.12,-1.01,0.0819,0.0682,0.108,0.104
AGAGCAG,0.0057,-0.0322,-0.344,-0.0723,0.00257,-0.645,0.0653,0.0813,-0.0785,-0.0593
CGAATTC,0.0165,-0.00331,0.0125,-0.092,-0.0108,-0.64,0.102,0.0658,0.0658,0.0149
CAATAAA,-0.176,0.0251,-0.377,-1.05,-0.054,-0.827,-0.165,-0.0894,-0.216,-0.0873
TAGGATT,0.0401,-0.0518,-0.0304,0.0107,-0.215,1.55,-2.35,-0.103,-0.163,-0.0492
TTCGCCT,-0.0863,-0.285,-0.21,-1.9,-0.159,-0.89,-0.304,-0.261,-0.271,-0.219
AGATTCC,-0.196,-0.0702,0.139,0.465,-0.0747,0.206,-0.714,-0.108,-0.107,-0.122
ATGAGAA,0.104,-0.0346,0.102,0.298,0.158,-0.27,0.0944,0.105,0.0442,0.0349
AGAAAGA,0.0691,0.0683,0.0829,0.213,0.0376,-0.747,0.124,0.08,0.0814,0.0247
GATTGTC,0.112,0.0802,-0.116,0.106,0.000177,-0.636,-0.0321,0.0315,0.135,0.0552
TGATCGC,0.0689,-0.0695,-0.353,-0.654,0.0555,-1,0.0854,0.0832,0.00296,-0.0691
TTCCAAC,0.0119,0.0312,0.153,-1.12,-0.00268,-0.00218,0.0315,-0.0816,0.0322,0.0743
TATACTT,-2.63,-3.2,-2.18,-3.09,-0.1,0.0166,-3.5,-0.29,-0.201,-0.288
CGATCGC,0.217,0.052,-0.188,-0.201,0.0278,-0.569,0.093,0.0013,0.0745,0.173
CCTCTCT,-0.108,-0.0157,-0.145,-2.14,-0.0831,-0.516,-0.178,-0.0704,-0.0215,-0.128

# Source: the supplement of paper PMC7826260
